Test results taken from patent US20240392271A1, “ENGINEERED CASX REPRESSOR SYSTEMS” (Scribe Therapeutics Inc., priority 2021, published 2024).

Tested on: endogenous B2M (beta-2-microglobulin) gene
Assay: B2M protein expression by HLA antibody flow cytometry, dXR constructs (Example 1, Table 14)
Assay type: cell-based, human
Details: HEK293T cells, % of cells counted that were positive, biological triplicates
Text: dXR variant plasmids encoding constructs having the configuration of U6-gRNA+Ef1α-NLS-GGS-dCasX491-GGS-KRAB variant-NLS (dCasX491 refers to catalytically-dead CasX 491), were transiently transfected into HEK293T cells in an arrayed 96-well format. These constructs also contained a 2× FLAG sequence, as well as sequences encoding either a gRNA scaffold 174 (SEQ ID NO: 2238) having a spacer (spacer 7.37) targeting the endogenous B2M (beta-2-microglobulin) gene or a non-targeting control (spacer 0.0), which were all cloned upstream of a P2A-puromycin element on the plasmid. Four different effector domains were tested in addition to the “naked” dCasX491 (KRAB variant domains listed in Table 9; spacer sequences listed in Table 10; sequences of additional elements listed in Table 11). The corresponding protein sequences of the dXR molecule are listed in Table 13, and the generic configuration of the dXR molecule is illustrated in FIG. 38. […] Changes in gene expression were calculated by performing qPCR on the targeted gene and a housekeeping gene as reference. […] In addition to the wells used for RNA measurements, a separate set of wells was harvested seven days post-transfection and analyzed for B2M protein expression. Expression of B2M protein was determined by using an antibody that detects the B2M-dependent HLA protein complex on the cell surface. […]

B1: dXR4: dCasX491 fused to ZNF334 KRAB domain (SEQ ID NO: 340) (protein)
chain: KMKKFQIPVSFQDLTVNFTQEEWQQLDPAQRLLYRDVMLENYSNLVSVGYHVSKPDVIFKLEQGEEPWIVEEFSNQNYPD
% cells expressing B2M protein (B2M-targeting spacer 7.37): 19.80% | % cells expressing B2M protein (non-targeting spacer 0.0): 98.23%
